This passage reports z-score results from PubChem BioAssay AID488969 (Vanderbilt High Throughput Screening Facility, 2010).

Molecules are shown by their SMILES. Whole data set: some 110,000 compounds, median “z-score” near -0.1, cut for the highest 2% near 2. The list shows a part of the results.

For the experiment, the target named is Metabotropic glutamate receptor 8 (Rattus norvegicus) (UniProt P70579). The experiment can be described thus: rat mGluR8 modulators via GIRK flux, primary screen, cell-based, thallium flux, HTS (AID 488969). Particulars: HEK293 rat mGluR8, GIRK (G protein-gated inwardly rectifying potassium channel) thallium flux, FluoZin2; at 10 µM; stronger effect = higher value.
Chain of UniProt P70579 (P70579 whole entry, looked up): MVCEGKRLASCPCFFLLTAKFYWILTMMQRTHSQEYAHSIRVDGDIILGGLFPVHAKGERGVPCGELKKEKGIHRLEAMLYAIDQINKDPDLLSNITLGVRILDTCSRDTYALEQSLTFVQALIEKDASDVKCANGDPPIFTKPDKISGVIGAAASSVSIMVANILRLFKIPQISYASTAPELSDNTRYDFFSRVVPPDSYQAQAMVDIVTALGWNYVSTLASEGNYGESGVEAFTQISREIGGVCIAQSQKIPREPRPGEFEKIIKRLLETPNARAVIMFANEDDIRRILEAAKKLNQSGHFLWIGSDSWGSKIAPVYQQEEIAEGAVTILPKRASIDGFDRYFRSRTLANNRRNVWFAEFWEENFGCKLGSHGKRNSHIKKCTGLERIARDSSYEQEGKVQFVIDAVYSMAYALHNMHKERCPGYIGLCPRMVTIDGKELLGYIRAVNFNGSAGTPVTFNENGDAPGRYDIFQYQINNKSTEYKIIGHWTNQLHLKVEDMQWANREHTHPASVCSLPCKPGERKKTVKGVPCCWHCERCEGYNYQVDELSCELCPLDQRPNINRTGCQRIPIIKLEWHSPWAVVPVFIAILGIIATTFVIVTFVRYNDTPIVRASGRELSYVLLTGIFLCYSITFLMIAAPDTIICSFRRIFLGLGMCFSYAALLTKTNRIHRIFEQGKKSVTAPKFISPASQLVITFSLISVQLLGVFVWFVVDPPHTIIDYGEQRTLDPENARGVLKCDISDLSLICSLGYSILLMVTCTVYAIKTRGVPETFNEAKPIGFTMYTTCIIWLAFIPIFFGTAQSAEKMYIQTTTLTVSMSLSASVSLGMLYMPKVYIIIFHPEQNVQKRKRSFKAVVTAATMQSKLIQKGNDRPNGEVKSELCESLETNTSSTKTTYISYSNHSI
The compound `O=C(COc1ccccc1)N1CCN(CC(O)COc2ccccc2)CC1` (configuration not stated) came in with a z-score of -0.428.
In the case of `O=C1C2CCN(CC2)[C@@H]1Cc1ccc2ccccc2c1O` it was 0.657; in that of `O=C(OCC(=O)c1ccc([N+](=O)[O-])cc1)/C(=C\c1ccc(Cl)cc1)NC(=O)c1ccccc1`, -0.361.
Regarding `CCOc1cc2[nH]c(=S)n(CCCC(=O)N3CCC4(CC3)OCCO4)c(=O)c2cc1OCC`, the z-score was -0.747.
In the case of `O=C(Cc1ccccc1)N1CCN(Cc2cccnc2)CC1` it was 0.0634; in that of `O=S(=O)(c1ccc(Cl)cc1)N1CN2CCN(C2)C1`, -0.171; in that of `C=CCN(CC=C)Cc1c[nH]c2ccccc12`, 1.43.
To `C(#CCN1CCOCC1)COC/C=C/c1ccccc1` belongs 0.236; to `COc1ccc(CCNC(=O)COC(=O)Cc2ccccc2)cc1`, -0.0964.
Compound `Cn1c(O)c(C=NCCN2CCN(C(=O)c3ccccc3)CC2)c(=O)n(C)c1=O` came in with a z-score of 0.641.
To `CN(C)CC1CSCCC1(O)c1ccccc1Cl` (configuration not stated) belongs 0.0287; to `N#CCCn1cc(C(=O)Nc2ccc([N+](=O)[O-])cc2)c(-c2ccc3c(c2)OCCO3)n1`, -0.442; to `Cc1cc(N2C(=O)C3CCCN3C2c2cccc(Cl)c2)no1` (configuration not stated), -0.0336.
Compound `CC1CCCN(C(=O)c2ccc(N3CC4CC(C3)c3cccc(=O)n3C4)c([N+](=O)[O-])c2)C1` (configuration not stated) showed a z-score of -0.848.
In the case of `O=C1CN=C(c2ccccc2)c2ccccc2N1Cc1ccc(C(F)(F)F)cc1` it was 0.646.
`c1ccc(C2CC3CC(c4ccco4)N2O3)cc1` (configuration not stated): the z-score was -0.27.
Take `O=C(CN1C2CCC1CC(O)(c1cccnc1)C2)Nc1ccc2c(c1)OCO2` (configuration not stated): the z-score is -0.287.
The compound `Cc1cc(C=C2C(=O)N(C)C(=S)N(C)C2=O)c(C)n1C1CCCCC1` yielded a z-score of -0.45.
To `O=C(NC1(C(F)(F)F)Oc2ccc(Cl)cc2O1)N1CCC2(CC1)OCCO2` (configuration not stated) belongs 0.113; to `CC[N+](C)(CC)CCCOC(=O)C(O)(c1ccccc1)C1CCCCC1` (configuration not stated), -0.291.
In turn, `COc1ccccc1-n1c(O)c(C=NCc2ccc3c(c2)OCO3)c(=O)[nH]c1=O` displayed a z-score of -0.171.
To `O=c1[nH]c(=S)n(CCC2=CCCCC2)c(O)c1C=NC1CCN(Cc2ccccc2)CC1` belongs -0.0226; to `O=C(c1cc(=O)[nH]c2ccc(Br)cc12)N1CCC2(CC1)OCCO2`, -0.021; to `CCC(=NCCO)c1c(O)n(-c2ccccc2)c(=O)[nH]c1=O`, -0.323.
For the compound `CN1C2CCC1CC(OC(=O)c1ccc(Cl)cc1)C2` (configuration not stated), the z-score turned out to be 0.354.
In the case of `COC(=O)C(c1ccccc1)N1CCCCCC1` (configuration not stated) it was -0.607; in that of `CC(=O)c1ccccc1NC(=O)C1C2CCC(O2)C1C(=O)O` (configuration not stated), 0.0608; in that of `CCCCCn1c(=O)c(C(=O)Nc2c(C)n(C)n(-c3ccccc3)c2=O)c(O)c2ccccc21`, -0.252.
As for `O=C(Cn1cc(C(=O)c2ccccc2)c2ccccc21)NCc1ccco1`, the z-score was -0.643.
In the case of `CCOC(=O)c1sc(/N=C/c2c(O)n(-c3cccc(C)c3)c(=O)[nH]c2=O)c(C#N)c1C` it was -0.627; in that of `CCOC(=O)C1C(=O)NC23CCCC2C1c1ccccc1O3` (configuration not stated), -1.02.
To `COC(=O)C[C@]1(C(=O)OC)CN(C#N)N(c2ccc(Cl)cc2)C12c1ccccc1-c1ccccc12` belongs -0.826.
To `Cc1nn(-c2ccccc2)c2c1C(c1ccc3c(c1)OCO3)SCC(=O)N2` (configuration not stated) belongs -0.525.
The compound `S=C(c1ccc(Cl)cc1)N1CCOCC1` showed a z-score of -0.144.
To `CCC[N+]12CCC(CC1)C(=C(c1ccccc1)c1ccccc1)C2` belongs -0.189; to `O=C(C1c2ccccc2C(=O)N2CCc3ccccc3C12)N1CCC2(CC1)OCCO2` (configuration not stated), -0.142.
In turn, `Cc1ccc(-n2c(-c3ccc([N+](=O)[O-])cc3)nc3ccccc3c2=O)cc1` displayed a z-score of -0.412.
In the case of `CN1CCN(c2ccc([N+](=O)[O-])c(N)c2)CC1` it was 0.0155; in that of `CCCC(=O)NC(Oc1ccccc1Cl)C(Cl)(Cl)Cl` (configuration not stated), -0.34.
To `CCCCn1c(O)c(C(C)=NCCCN(C)C)c(=O)[nH]c1=O` belongs 0.319; to `COC(=O)N(c1ccc(OC)cc1)P1(=S)OCCC(C)O1` (configuration not stated), -0.203.
In the case of `CCC(=NCCc1c[nH]c2ccccc12)c1c(O)n(C)c(=O)n(C)c1=O` it was -0.466.
As to `CCCc1nc2ccccc2c(=O)n1-c1ccccc1OC`, the z-score is -0.658.
Compound `COc1ccc(-c2cc(C(F)(F)F)n3nc(C(=O)N4CCC5(CC4)OCCO5)cc3n2)cc1OC` came in with a z-score of -0.318.
To `CC1CC(NC(=O)C2C3CCC(O3)C2C(=O)O)CC(C)(C)C1` (configuration not stated) belongs 0.764.
To `Cc1ccc(OCC(=O)NCCN2CCN(C(=O)COc3ccc(C)cc3)CC2)cc1` belongs 0.02; to `CCc1ccc(N2C(=O)NC(=O)/C(=C/c3cccn3CCOc3ccc(C)cc3)C2=O)cc1`, -0.287; to `O=C(c1cccn2c(=O)c3ccc(Cl)cc3nc12)N1CCC2(CC1)OCCO2`, -0.0942.
In the case of `OC(CNC1CCCCC1)c1ccccc1` (configuration not stated) it was 0.303.
`CC12CN3CN(C1)CC(C)(C3)C2=NO` returned a z-score of -0.219.
To `O=C1/C(=C\c2cc3c(cc2Cl)OCO3)N2CCC1CC2` belongs -0.362; to `CSc1ccc(CNC2CN3CCC2CC3)cc1` (configuration not stated), 1.16.
For `Oc1cccc(/C=N/NP(=S)(c2ccccc2)c2ccccc2)c1`, the z-score is -0.0771.
To `COc1ccc(-c2csc(NC(=O)COC(=O)Cc3ccccc3)n2)cc1OC` belongs -0.152; to `N=C1C(c2ccccc2)=C(O)CN1Cc1ccco1`, -0.712.
To `COc1ccc(C(C)=O)cc1CC(C(=O)c1ccc(C)cc1)N(C)C` (configuration not stated) belongs -0.459; to `CC(=O)OC1N=C(c2ccccc2)c2cc(Br)ccc2NC1=O` (configuration not stated), -0.0814.
To `COc1cccc(N2C(=O)NC(=O)/C(=C/c3ccc4c5c(cccc35)CC4)C2=O)c1` belongs -0.126.
In the case of `Cc1ccc(NC(=O)CSc2nnc([C@@H](N)Cc3c[nH]c4ccccc34)o2)c(C)c1`, the z-score was -0.219.
To `O=C(CCn1c(=O)oc2ccccc21)N1CCC2(CC1)OCCO2` belongs 0.458; to `CC(C)(C)c1ccc(O)c(CN2CCN(c3ccccc3)CC2)c1`, -0.143.
In the case of `CCn1c(O)c(C=Nc2ccc(S(N)(=O)=O)cc2)c(=O)n(CC)c1=S` it was 0.323; in that of `CNC(C(=O)c1ccccc1)C(OC(C)C)c1ccc(Cl)cc1` (configuration not stated), 0.281; in that of `Cc1ccc(N(C)C(=O)Oc2cccc3ccc(C)nc23)cc1`, 0.0954.
In the case of `O=C1NC(=O)C(=Cc2cn(CCOc3ccc4c(c3)OCO4)c3ccccc23)C(=O)N1` it was -0.212; in that of `C/C(=C\c1ccc(N(C)C)cc1)[N+](=O)[O-]`, -0.153; in that of `Oc1ccc(CC2CC3CCN2CC3)cc1O` (configuration not stated), 0.716.
`Cc1ccc(C)c(C2(O)CC(C)N(C)CC2C)c1` (configuration not stated) registered a z-score of 0.0958.
In turn, `CC1CN=C(Nc2ccc(N(C)C)cc2)S1` (configuration not stated) returned a z-score of 0.0819.
To `CN(C)CC#CCC(O)(c1ccccc1)C1CCCC1` (configuration not stated) belongs -0.183.
In the case of `CCN(CC)c1ccc(/C=C2/C(=O)NC(=O)N(CC3CCCO3)C2=O)cc1` (configuration not stated) it was 0.01; in that of `CN(C)CC1CSCCC1(O)c1ccccc1` (configuration not stated), 0.409; in that of `CC1(C)C(C(=O)NN2C(=O)c3ccccc3C2=O)C1(C)C`, -0.351.
In the case of `C=C1N2CCC(CC2)C1(O)c1ccc(C)cc1` (configuration not stated) it was -0.123.
`O=C(c1ccco1)C12CN3CN(CN(C3)C1)C2` returned a z-score of -1.11.
Take `Cc1nn(C)c(C)c1P(=S)(c1c(C)nn(C)c1C)N(C)C`: the z-score was found to be 1.1.
To `CC1(C)C2([N+](=O)[O-])CNCC1([N+](=O)[O-])CNC2` belongs -0.698; to `CN(CCCCC(=O)/C=N/O)Cc1ccccc1` (tested in a mixture with another compound), -0.317; to `Cc1ccc(-c2nc(N(C)C3CCN(C)CC3)c3ccccc3n2)cc1`, 2.91.
As for `CC(Cc1ccccc1)[n+]1cc(/N=C(\[O-])N(C)C)on1` (configuration not stated), the z-score was 0.239.
To `CC(=O)O[C@]1(c2ccccc2)CCN(C)[C@H]2CCCC[C@@H]21` belongs 0.237.
To `CN(C)C1(c2nnnn2CCOC(=O)Nc2ccc(Cl)cc2)CCCCC1` belongs -0.443; to `Cc1ccc2c(c1)CC1(CN2C)C(=O)NC(=O)N(CCC2=CCCCC2)C1=O` (configuration not stated), 0.712; to `CCCCC(=O)N/N=C/c1c(O)n(C2CC2)c(=S)[nH]c1=O`, 0.0285.
In the case of `CCN1CC=C(c2c[nH]c3ccccc23)CC1` it was 2.05.
For the compound `Cc1c(/C=C2/CC3C4CC=C5CC(O)CCC5(C)C4CCC3(C)C2=O)cnn1C` (configuration not stated), the z-score stood at 1.02.
To `COc1ccccc1N1CCN(Cc2ccc(Cl)cc2Cl)CC1` belongs -0.166.
The compound `c1cncc(CNC2=NCCCCC2)c1` yielded a z-score of -0.113.
In the case of `FC(F)(F)c1cccc(-n2nnnc2C2(N3CCOCC3)CCCCC2)c1` it was -0.203; in that of `O=C(O)C(Cc1cnc[nH]1)NS(=O)(=O)c1ccc(Cl)cc1` (configuration not stated), 0.184; in that of `CC12CN3CC(C)(CN(C1)C3c1cccs1)C2O` (configuration not stated), 0.438.
To `O=C1NC(=O)C2(Cc3ccccc3N3CCCC32)C(=O)N1` (configuration not stated) belongs -0.0197; to `ClCCNc1nc2ccc(Cl)cc2[nH]1`, -0.215.
Take `CN1CCN(CCC(=O)OC2CC3CCC(C2)N3C)CC1` (configuration not stated): the z-score is -0.106.
To `CC(C)C(=O)c1cn(Cc2ccc(C#N)cc2)c2ccccc12` belongs -0.425.
Consider `CC1(C)CC(n2[nH]c(=O)c3c2NC(=O)CSC3c2ccccc2)CCO1` (configuration not stated), for which the z-score worked out at 0.841.
As for `CCCCCCn1c(N)c(C(=O)NCCN2CCOCC2)c2nc3ccccc3nc21`, the z-score is -0.204.
In the case of `Cc1cc(N2C(=O)CC(N3CCC(n4c(=O)[nH]c5ccccc54)CC3)C2=O)no1` (configuration not stated) it was -0.309.
In the case of `O[C@@H]1CCCC[C@H]1N1CCC(c2ccccc2)CC1` it was 0.16; in that of `O=Cc1cn(Cc2ccccc2[N+](=O)[O-])c2ccccc12`, 0.376.
As to `Clc1ccc(C2NCCc3[nH]cnc32)cc1` (configuration not stated), the z-score was determined as 0.398.
In the case of `O=C(COc1ccccc1)N1CCN(C/C=C/c2ccccc2)CC1` it was 0.702.
To `CCC(=NCC1CCCO1)c1c(O)[nH]c(=O)[nH]c1=O` (configuration not stated) belongs -0.927.
In the case of `Cc1cc(NCCN)nc2ccccc12` it was -0.142; in that of `CC(=O)OC1(Cc2ccccc2)CN2CCC1c1ccccc12` (configuration not stated), -0.106.
For the compound `CC(=O)Nc1ccc(OC(=O)c2ccccc2N)cc1`, the z-score amounted to 0.06.
To `Cc1cc(C)nc(NC2=NCCS2)n1` belongs 0.179.
To `O=C(c1ccccc1)c1cn(CC(=O)N2CCOCC2)c2ccccc12` belongs 0.111; to `CC(C)n1c(=O)c(C=Nc2ccc(Cl)cc2)c(O)n(Cc2ccco2)c1=O`, -0.0221.
To `C/C(=N\N1CCN(C)CC1)c1c(O)n(Cc2ccccc2)c(=O)[nH]c1=O` belongs -0.292; to `COc1cccc(CCNCc2ccc(SC)cc2)c1`, 0.839.
For `Cc1c(N=Nc2c(O)[nH]c(=S)[nH]c2=O)c(=O)n(-c2ccccc2)n1C`, the z-score is -0.268.
